This is one part of the list.
What was measured:
HSkMC = human skeletal muscle cells; experiment: cytotoxicity call (relative viability < 0.9); settings: 10 µM
S. aureus RN4220 = experiment: growth inhibition call (relative growth <= 0.2); settings: 50 µM

| SMILES | cytotoxicity call (HSkMC) | growth inhibition call (S. aureus RN4220) |
| --- | --- | --- |
| CN(C)CCNC(=O)[C@H]1CN(Cc2cnn(C)c2)Cc2ccnn2C1 | inactive | inactive |
| CN(C)CCCNC(=O)C[C@@H]1CC[C@@H]2[C@H](COC[C@H](O)CN2S(=O)(=O)c2ccccc2)O1 | inactive | inactive |
| CCCCCCCCCCCCCCCCCC(=O)NCCCCOn1c(CCCC)nc2c(N)nc3ccccc3c21 | inactive | inactive |
| O=C1O[C@H](c2ccccc2)[C@H](c2ccccc2)N2[C@H]1[C@@H](C(=O)NC[C@@H](O)c1ccccc1)[C@]1(C(=O)Nc3ccc(C#CC4(O)CCCCCC4)cc31)[C@H]2c1ccccc1OCCO | inactive | inactive |
| Cc1noc(C)c1NC(=O)Nc1ccc2c(c1)C(=O)N([C@@H](C)CO)C[C@@H](C)[C@@H](CN(C)C(=O)Nc1ccc(F)cc1)OCCCC[C@@H](C)O2 | inactive | inactive |
| C[C@H]1CCCCO[C@@H](CN(C)C(=O)Nc2ccc(C(F)(F)F)cc2)[C@@H](C)CN([C@@H](C)CO)C(=O)c2cc(NS(=O)(=O)c3cccs3)ccc2O1 | inactive | inactive |
| C[C@H](CO)N1C[C@H](C)[C@H](CN(C)S(=O)(=O)c2cccs2)Oc2ccc(NC(=O)Cn3cnnn3)cc2C1=O | inactive | inactive |
| COc1ccc(-c2coc3c(OC)c(OC)cc(O)c3c2=O)cc1 | inactive | inactive |
| COc1ccc(S(=O)(=O)Nc2cccc3c2O[C@H](CN(C)C(=O)Nc2c(C)noc2C)[C@H](C)CN([C@H](C)CO)C3=O)cc1 | inactive | inactive |
| CC(C)NC(=O)N(C)C[C@H]1Oc2ccc(NC(=O)CCC(F)(F)F)cc2C(=O)N([C@@H](C)CO)C[C@H]1C | inactive | inactive |
| CC(C)NC(=O)Nc1ccc2c(c1)CC(=O)N([C@H](C)CO)C[C@@H](C)[C@@H](CN(C)S(=O)(=O)c1ccc(Cl)cc1)O2 | inactive | inactive |
| C[C@@H]1CCCCO[C@@H](CN(C)S(=O)(=O)c2cn(C)cn2)[C@@H](C)CN([C@H](C)CO)C(=O)c2cc(NC(=O)c3ccncc3)ccc2O1 | inactive | inactive |
| CCCCC1C(=O)N(c2ccccc2)N(c2ccccc2)C1=O | inactive | inactive |
| CN(C)CC(=O)N[C@H]1C=C[C@@H](CC(=O)O)O[C@@H]1CO | inactive | inactive |
| C[C@@H]1CN([C@@H](C)CO)S(=O)(=O)c2ccc(-c3cccc(C(=O)N(C)C)c3)cc2O[C@@H]1CN(C)C(=O)Cc1ccccn1 | inactive | inactive |
| C[C@H]1CN([C@@H](C)CO)C(=O)Cc2cc(NC(=O)CCN3CCOCC3)ccc2O[C@@H]1CN(C)Cc1ccncc1 | inactive | inactive |
| COc1ccc(S(=O)(=O)Nc2ccc3c(c2)C(=O)N([C@@H](C)CO)C[C@@H](C)[C@@H](CN(C)S(=O)(=O)c2cn(C)cn2)OCCCC[C@@H](C)O3)cc1 | inactive | inactive |
| O=c1cc(-c2cccc(O)c2)oc2ccc(O)cc12 | inactive | inactive |
| Cc1noc(C)c1NC(=O)Nc1ccc2c(c1)C(=O)N([C@@H](C)CO)C[C@H](C)[C@@H](CN(C)Cc1ccc(Cl)c(Cl)c1)OCCCC[C@H](C)O2 | inactive | inactive |
| C[C@H]1CN([C@@H](C)CO)S(=O)(=O)c2ccc(-c3cncnc3)cc2O[C@H]1CN(C)C(=O)Cc1ccccc1 | inactive | inactive |
| C=CC[C@H](CC(=O)N(CCO)Cc1ccccc1)C(=O)N[C@H](COC(=O)[C@@H](CC=C)Cc1ccc(F)cc1)Cc1c[nH]c2ccccc12 | inactive | inactive |
| C[C@@H]1CN([C@H](C)CO)C(=O)c2cc(NC(=O)Nc3ccccc3)ccc2O[C@@H](C)CCCCO[C@@H]1CN(C)Cc1ccc2c(c1)OCO2 | inactive | inactive |
| C[C@H]1CN([C@@H](C)CO)C(=O)c2cc(Br)cnc2O[C@H]1CN(C)S(=O)(=O)c1ccccc1 | inactive | inactive |
| C[C@H]1CN([C@@H](C)CO)C(=O)c2cccc(NC(=O)c3ccncc3)c2O[C@H]1CN(C)Cc1ccncc1 | inactive | inactive |
| C[C@@H]1CCCCO[C@@H](CN(C)S(=O)(=O)c2ccccc2)[C@@H](C)CN([C@@H](C)CO)C(=O)c2cc(NC(=O)Nc3ccc(F)cc3)ccc2O1 | inactive | inactive |
| COc1ccc([C@@H](NC(=O)C2CCN(CCOc3ccc(Cl)cc3Cl)CC2)c2ccccn2)cc1 | inactive | inactive |
| C[C@H]1CN([C@@H](C)CO)C(=O)Cc2cc(NC(=O)Cc3ccccc3)ccc2O[C@@H]1CN(C)Cc1ccc(-c2ccccc2)cc1 | inactive | inactive |

Source: the antibiotic and cytotoxicity screens of Wong et al. (2023)
